Source: patent publication US20220112258A1 (I MAB BIOPHARMA US, published 2022)
Each block holds one binder with its values, some of them ahead of it.

How the values were obtained:
[1] = target: T1, recombinant human his-tagged PD-L1 protein (human, UniProt Q9NZQ7 in part); test: ELISA, his-tagged PDL1 coated, OD450
T1 construct: also called hPDL1-his; his-tagged human PD-L1; not shown: his tag
From the text: Briefly, for ELISA-based binding, his-tagged PDL1 was used as coating protein.

[2] = target: T1, recombinant human his-tagged PD-L1 …; test: SPR (Biacore T200), fusion molecule captured on protein A chip, his-tagged human PD-L1 injected
Description: A series of dilutions of human PD-L1 protein were injected over captured antibody at a flow rate of 10 μL/min. […] All the experiments were carried out on a Biacore T200. Data analysis was carried out using Biacore T200 evaluation software.

[3] = target: T2, PD-L1 expressed on cells (Raji-PD-L1; tumor cell lines RKO, HCC1954, HCC827) (human, UniProt Q9NZQ7); test: flow cytometry on Raji-PD-L1 cells, PE anti-human IgG Fc, MFI
T2 construct: whole, on cells; also called cell-surface expressed PD-L1; cell surface PD-L1
Description: After washing by FACS staining buffer, the PE-conjugated anti-human IgG Fc specific antibody was added to each well and incubated on ice for 30 mins. The MFI of PE were evaluated by FACS Celesta.

B1: LI17^142I (anti-PD-L1 v4) Format 2 (Fc fusion)
heavy: QVQLLESGGGLVQPGGSLRLSCAASGFTFSSYWMSWVRQAPGKGLEWVANIKQDGSEKYYVDSVKGRFTISRDNAKNSLYLQMNSLRAEDTAVYYCARVALWDDAFDIWGQGTMVTVSSASTKGPSVFPLAPSSKSTSGGTAALGCLVKDYFPEPVTVSWNSGALTSGVHTFPAVLQSSGLYSLSSVVTVPSSSLGTQTYICNVNHKPSNTKVDKKVEPKSCQVQLLESGGGLVQPGGSLRLSCAASGFTFSSYWMSWVRQAPGKGLEWVANIKQDGSEKYYVDSVKGRFTISRDNAKNSLYLQMNSLRAEDTAVYYCARVALWDDAFDIWGQGTMVTVSSASTKGPSVFPLAPSSKSTSGGTAALGCLVKDYFPEPVTVSWNSGALTSGVHTFPAVLQSSGLYSLSSVVTVPSSSLGTQTYICNVNHKPSNTKVDKKV[human IgG1 Fc with changes not listed]
chain: DCDIEGKDGKQYESVLMVSIDQLLDSMKEIGSNCLNNEFNFFKRHICDANKEGMFLFRAARKLRQFLKMNSTGDFDLHLLKVSEGTTILLNCTGQVKGRKPAALGEAQPTKSLEENKSLKEQKKLNDLCFLKRLLQEIKTCINKILMGTKEH[human IgG1 Fc with changes not listed]
light: DIQMTQSPSTLSASVGDRVIITCRASRGISSWLAWYQQKPGKAPNLLISKASSLESGVPSRFSGSGSGTDFTLTISSLQPEDFATYYCQQSSSIPLTFGGGTKVEIKRTVAAPSVFIFPPSDEQLKSGTASVVCLLNNFYPREAKVQWKVDNALQSGNSQESVTEQDSKDSTYSLSSTLTLSKADYEKHKVYACEVTHQGLSSPVTKSFNRGEC
notes: Format 2 with IL-7 W142I
EC50 [1]: 0.94 nM
Kd [2]: 0.728 nM
koff [2]: 0.000673 s⁻¹
kon [2]: 925000 M⁻¹ s⁻¹
EC50 [3]: 0.28 nM

B4: L1I7^142V (anti-PD-L1 v4) Format 2 (Fc fusion)
heavy: QVQLLESGGGLVQPGGSLRLSCAASGFTFSSYWMSWVRQAPGKGLEWVANIKQDGSEKYYVDSVKGRFTISRDNAKNSLYLQMNSLRAEDTAVYYCARVALWDDAFDIWGQGTMVTVSSASTKGPSVFPLAPSSKSTSGGTAALGCLVKDYFPEPVTVSWNSGALTSGVHTFPAVLQSSGLYSLSSVVTVPSSSLGTQTYICNVNHKPSNTKVDKKVEPKSCQVQLLESGGGLVQPGGSLRLSCAASGFTFSSYWMSWVRQAPGKGLEWVANIKQDGSEKYYVDSVKGRFTISRDNAKNSLYLQMNSLRAEDTAVYYCARVALWDDAFDIWGQGTMVTVSSASTKGPSVFPLAPSSKSTSGGTAALGCLVKDYFPEPVTVSWNSGALTSGVHTFPAVLQSSGLYSLSSVVTVPSSSLGTQTYICNVNHKPSNTKVDKKV[human IgG1 Fc with changes not listed]
chain: DCDIEGKDGKQYESVLMVSIDQLLDSMKEIGSNCLNNEFNFFKRHICDANKEGMFLFRAARKLRQFLKMNSTGDFDLHLLKVSEGTTILLNCTGQVKGRKPAALGEAQPTKSLEENKSLKEQKKLNDLCFLKRLLQEIKTCVNKILMGTKEH[human IgG1 Fc with changes not listed]
light: B1 light
notes: Format 2 with IL-7 W142V
EC50 [1]: 0.69 nM
Kd [2]: 0.734 nM
koff [2]: 0.000649 s⁻¹
kon [2]: 885000 M⁻¹ s⁻¹
EC50 [3]: 0.25 nM

B5: L1I7^142V (anti-PD-L1 v3) Format 2 (Fc fusion)
heavy: EVQLVESGGGLVQPGGSLRLSCAASGFTFSSYDMSWVRQAPGKSLEWVATISDAGGYIYYSDSVKGRFTISRDNAKNSLYLQMNSLRDEDTAVYICAREFGKRYALDYWGQGTTVTVSSASTKGPSVFPLAPSSKSTSGGTAALGCLVKDYFPEPVTVSWNSGALTSGVHTFPAVLQSSGLYSLSSVVTVPSSSLGTQTYICNVNHKPSNTKVDKKVEPKSCEVQLVESGGGLVQPGGSLRLSCAASGFTFSSYDMSWVRQAPGKSLEWVATISDAGGYIYYSDSVKGRFTISRDNAKNSLYLQMNSLRDEDTAVYICAREFGKRYALDYWGQGTTVTVSSASTKGPSVFPLAPSSKSTSGGTAALGCLVKDYFPEPVTVSWNSGALTSGVHTFPAVLQSSGLYSLSSVVTVPSSSLGTQTYICNVNHKPSNTKVDKKV[human IgG1 Fc with changes not listed]
chain: DCDIEGKDGKQYESVLMVSIDQLLDSMKEIGSNCLNNEFNFFKRHICDANKEGMFLFRAARKLRQFLKMNSTGDFDLHLLKVSEGTTILLNCTGQVKGRKPAALGEAQPTKSLEENKSLKEQKKLNDLCFLKRLLQEIKTCVNKILMGTKEH[human IgG1 Fc with changes not listed]
light: DIQMTQSPSSLSASVGDRVTITCKASQDVTPAVAWYQQKPGKAPKLLIYSTSSRYTGVPSRFSGSGSGTDFTFTISSLQPEDIATYYCQQHYTTPLTFGQGTKLEIKRTVAAPSVFIFPPSDEQLKSGTASVVCLLNNFYPREAKVQWKVDNALQSGNSQESVTEQDSKDSTYSLSSTLTLSKADYEKHKVYACEVTHQGLSSPVTKSFNRGEC
notes: Format 2 with IL-7 W142V; also called L1I7^W142V
EC50 [1]: 0.12 nM

The next lines start with the values.

EC50 [1]: 0.12 nM
B2: L1I7^142I(anti-PD-L1 v3) Format 2 (Fc fusion)
heavy: EVQLVESGGGLVQPGGSLRLSCAASGFTFSSYDMSWVRQAPGKSLEWVATISDAGGYIYYSDSVKGRFTISRDNAKNSLYLQMNSLRDEDTAVYICAREFGKRYALDYWGQGTTVTVSSASTKGPSVFPLAPSSKSTSGGTAALGCLVKDYFPEPVTVSWNSGALTSGVHTFPAVLQSSGLYSLSSVVTVPSSSLGTQTYICNVNHKPSNTKVDKKVEPKSCEVQLVESGGGLVQPGGSLRLSCAASGFTFSSYDMSWVRQAPGKSLEWVATISDAGGYIYYSDSVKGRFTISRDNAKNSLYLQMNSLRDEDTAVYICAREFGKRYALDYWGQGTTVTVSSASTKGPSVFPLAPSSKSTSGGTAALGCLVKDYFPEPVTVSWNSGALTSGVHTFPAVLQSSGLYSLSSVVTVPSSSLGTQTYICNVNHKPSNTKVDKKV[human IgG1 Fc with changes not listed]
chain: DCDIEGKDGKQYESVLMVSIDQLLDSMKEIGSNCLNNEFNFFKRHICDANKEGMFLFRAARKLRQFLKMNSTGDFDLHLLKVSEGTTILLNCTGQVKGRKPAALGEAQPTKSLEENKSLKEQKKLNDLCFLKRLLQEIKTCINKILMGTKEH[human IgG1 Fc with changes not listed]
light: B5 light
notes: Format 2 with IL-7 W142I; also called L1I7^W142I

EC50 [1]: 0.066 nM
B3: L1I7^142A (anti-PD-L1 v3) Format 2 (Fc fusion)
heavy: EVQLVESGGGLVQPGGSLRLSCAASGFTFSSYDMSWVRQAPGKSLEWVATISDAGGYIYYSDSVKGRFTISRDNAKNSLYLQMNSLRDEDTAVYICAREFGKRYALDYWGQGTTVTVSSASTKGPSVFPLAPSSKSTSGGTAALGCLVKDYFPEPVTVSWNSGALTSGVHTFPAVLQSSGLYSLSSVVTVPSSSLGTQTYICNVNHKPSNTKVDKKVEPKSCEVQLVESGGGLVQPGGSLRLSCAASGFTFSSYDMSWVRQAPGKSLEWVATISDAGGYIYYSDSVKGRFTISRDNAKNSLYLQMNSLRDEDTAVYICAREFGKRYALDYWGQGTTVTVSSASTKGPSVFPLAPSSKSTSGGTAALGCLVKDYFPEPVTVSWNSGALTSGVHTFPAVLQSSGLYSLSSVVTVPSSSLGTQTYICNVNHKPSNTKVDKKV[human IgG1 Fc with changes not listed]
chain: DCDIEGKDGKQYESVLMVSIDQLLDSMKEIGSNCLNNEFNFFKRHICDANKEGMFLFRAARKLRQFLKMNSTGDFDLHLLKVSEGTTILLNCTGQVKGRKPAALGEAQPTKSLEENKSLKEQKKLNDLCFLKRLLQEIKTCANKILMGTKEH[human IgG1 Fc with changes not listed]
light: B5 light
notes: Format 2 with IL-7 W142A; also called L1I7^W142A
